B1: LINE1-full (parent)
chain: UACGUAGGUGGUUUUCCCCUGAUAGUGCUAAGGGGGCCUGGAAGUUUGGACUGGGCAGAGCUCAACACAGCGUGGCAAAGUGGCUGUGGCUAGACUGCCUCUCUGGAUUCCUCGUCACUCAGCAGGGCAUCUCUGAGAGAAAUGCC

Read counts are not given, so values of variants with three or more changes are uncertain.

Variants of B1 are the subject of this data set. Put plainly: self-cleavage, relative activity (ratio to wild type); higher = more cleavage; in vitro, sequencing; the parent is a self-cleaving ribozyme.
On to U12A U23C C38G A64G C76U A92G A94G U134C, for which the self-cleavage is 0.

In the case of G11A U132C A138G, the self-cleavage came out at 1.29.

With G11A U81C U104C A141G, the self-cleavage worked out at 2.78.

As to U12C A31G A117G, the self-cleavage came out at 1.91.

U9C G32A G48A A69G: the self-cleavage was found to be 0.37.

For G11A G106A A129G, the self-cleavage is 1.77.

Regarding G11U U46C G55A C133U, the self-cleavage is 0.77.

Regarding U12A U20A U45G C84A C101A, the self-cleavage worked out at 0.11.

On to U9C G82U U96C A117G, for which the self-cleavage was found to be 0.3.

With U12A A64G U112C A117U C120A A142G, the self-cleavage is 0.18.

Consider U9C U52A A57G U100A U109C, for which the self-cleavage came out at 0.3.

Regarding U9C U46C A57G U100C U130C U134A, the self-cleavage was determined as 0.

In the case of U9G A24G G89A U130A, the self-cleavage was determined as 0.05.

As to U9C U39C A69U, the self-cleavage is 0.51.

In the case of U9C U96C U112A U119C, the self-cleavage came out at 0.

Consider U12A U46C A79G, for which the self-cleavage was 0.59.

For the variant G10A A43G U73C A136G, the self-cleavage was found to be 1.45.

U9C U62C U91G U112C: the self-cleavage was determined as 0.

Turning to U9C U47C A94G U132C, the self-cleavage is 1.23.

Consider G11C U45C A138G, for which the self-cleavage stood at 0.82.

For U9G A31G G34A A107U A124G, the self-cleavage was found to be 1.58.

For U12C A22C U47A A136G A142G, the self-cleavage came to 2.17.

Turning to U9C U29A A117G, the self-cleavage came out at 1.17.

Take U12A U26A U81A U102C: the self-cleavage is 1.49.

Take U9G U62C U119C C120A A140G: the self-cleavage worked out at 0.

Consider G10U A24U U47C U112C, for which the self-cleavage came out at 0.92.

In the case of U12A U47C A57U U96C C98U, the self-cleavage turned out to be 0.17.

In the case of G11U U15C A69G, the self-cleavage was found to be 0.55.

Consider U9G U14C U109C, for which the self-cleavage was 0.93.

Take U9C U109A A136G A142G: the self-cleavage was 1.19.

For U12A U46C C84U A124G A129G, the self-cleavage was found to be 0.18.

For G10A U23C C66A, the self-cleavage was found to be 0.13.

Turning to U12A U100C A124G, the self-cleavage amounted to 1.47.

On to U12C A24G C51A U62A U109C U130C, for which the self-cleavage stood at 0.

For G11U A124U A136U, the self-cleavage stood at 1.59.

Consider U12C A31G U134C, for which the self-cleavage worked out at 0.06.

For U9C U108C U112C, the self-cleavage was 1.1.

As for U9C U13A U62A U73C, the self-cleavage came out at 0.16.

On to G11A A22U A42G, for which the self-cleavage was found to be 1.58.

Regarding U9C U119A A140G, the self-cleavage worked out at 0.4.

In the case of U12A U23C U52A, the self-cleavage came out at 0.78.

For the variant U9C U112A A140G, the self-cleavage stood at 0.85.

Take G10A U52A A69U U73A: the self-cleavage is 0.07.

On to U9C U29A U45G U96A, for which the self-cleavage is 0.

In the case of U9C U91C A92U A141G, the self-cleavage worked out at 1.06.

For U9C U39A A140G, the self-cleavage turned out to be 1.21.

As to U9C U45C A77G A79G, the self-cleavage was found to be 0.

Consider G10A G48U A78G, for which the self-cleavage was found to be 1.06.

Consider U9C U15C U119C U130C, for which the self-cleavage came to 1.53.

In the case of U9C G40A A79G A94U, the self-cleavage worked out at 0.28.

With U12C A64U A124U, the self-cleavage was determined as 1.13.

G11A G33A A64G A78G U91C: the self-cleavage was 0.19.

Regarding U9C U15A U112C, the self-cleavage worked out at 1.16.

On to U9C U62C U109C, for which the self-cleavage is 0.

U12C A43G U112A: the self-cleavage is 0.99.

U12A U81C U102C A142G: the self-cleavage is 1.27.

As to G11C A64G A65G U134A, the self-cleavage came out at 0.

For the variant U9G U100A A129G, the self-cleavage stood at 0.77.

In the case of U12C A24G U26C, the self-cleavage was 1.21.

Turning to U9C U62C A124G G127A, the self-cleavage was 0.

Consider U9C U45C U62C U87A, for which the self-cleavage was found to be 0.34.

Turning to G10U A22G U87C, the self-cleavage is 0.34.

U12C A31G G32A: the self-cleavage was 1.31.

For U12C A31U A57U U62C A129G, the self-cleavage amounted to 0.

Turning to U12C A59U U115C, the self-cleavage was found to be 1.48.

For U9C G34U A117G, the self-cleavage was 1.61.

Turning to U12C A57G A69U U96A, the self-cleavage is 0.

As to U12A U15C A69G, the self-cleavage is 0.42.

Regarding U9C U15C A117G, the self-cleavage stood at 0.9.

For G10A A42G U47C, the self-cleavage was determined as 1.19.

Consider U12C A79G U132A, for which the self-cleavage was determined as 1.81.

U9C U20C A31G G60A: the self-cleavage was determined as 0.13.

With G10A U20A A94G A141G, the self-cleavage was found to be 0.84.

For the variant U12C A31G U130C, the self-cleavage amounted to 1.34.

For the variant U12C A22G U73C A136G A140G, the self-cleavage is 0.

Turning to U12C A57U U62C A107G, the self-cleavage was found to be 0.

Take U12A U46C A79G U115C A117G C123A: the self-cleavage was determined as 1.84.

For the variant U9C U14A C95U A117U U134C, the self-cleavage was determined as 0.17.

In the case of G11A U45A U87C A141G, the self-cleavage was found to be 0.13.

Regarding U12C A78G U96A U134G A138G, the self-cleavage was 0.07.

Regarding U12C A64G C111U, the self-cleavage was determined as 0.57.

With U12C A77U C90U, the self-cleavage came to 0.06.

Consider U12A U45C U87C, for which the self-cleavage was 0.31.

Turning to U12C A22G U45C U115C, the self-cleavage was 0.

For U12A A30U A50G A57G, the self-cleavage was 1.38.

In the case of U12A C61U A69G A107U U115A, the self-cleavage worked out at 0.

As to U9C U12A A77G C99U A107G U119C, the self-cleavage was 2.63.

On to U9C U15C G49U A50U A79G A136U, for which the self-cleavage was 0.85.

On to G10A U13C A42G A142U, for which the self-cleavage worked out at 0.38.

Regarding U9C U13C G54A, the self-cleavage was determined as 0.62.

Turning to U12C A57G U91C U112C G114A U143C, the self-cleavage was determined as 0.38.

Turning to U9C G41A A117U, the self-cleavage came out at 1.36.

With U9C U15C A92U U130C, the self-cleavage was 0.41.

As for U9C U108C C131A, the self-cleavage turned out to be 1.08.

For the variant U12C A59U U109C, the self-cleavage is 1.36.

With U12C A42G A59U U109C U112A A129G, the self-cleavage amounted to 2.12.

Consider U9C U12C C66U, for which the self-cleavage is 0.31.

Consider U9C G55A A121G, for which the self-cleavage was determined as 0.7.

For the variant G11A U20C A124U, the self-cleavage stood at 1.89.

As for U9G A59C A64U U134C, the self-cleavage was 0.75.

U12C A79G U108C U130C: the self-cleavage turned out to be 1.38.

Consider U12C A42U A64G, for which the self-cleavage stood at 0.35.

Consider U9C U13G U14A U143C, for which the self-cleavage was determined as 0.69.

Consider U9G G105U A129G, for which the self-cleavage worked out at 1.14.

With U9C U15C A50G A141G, the self-cleavage was 1.19.

With U9C U23C A59U U102C A117C, the self-cleavage was determined as 0.

On to U9C U100A U115C, for which the self-cleavage is 1.29.

With G10U A67U U87C A94G U109C, the self-cleavage worked out at 0.

For U9C U81A A124G A141G A142G U143C, the self-cleavage is 0.

Turning to G11A G54C A64U, the self-cleavage amounted to 0.24.

As to G11A A57G U85C U115G C120A A136C, the self-cleavage came out at 0.

U9C U45C A59G: the self-cleavage was 0.53.

Take U12C A78U A121U: the self-cleavage came to 2.

Consider U12C A77U A141G, for which the self-cleavage was determined as 1.66.

Regarding U9C U15A A43U A141G, the self-cleavage worked out at 1.07.

In the case of U9C U109A A142G, the self-cleavage turned out to be 0.97.

Regarding U9G U14C U15A A42G, the self-cleavage worked out at 1.24.

For U9C U14C U100C, the self-cleavage amounted to 1.41.

U9C U104C G144U: the self-cleavage was 1.47.

For the variant G10A U39A U73C U91C, the self-cleavage was determined as 0.39.

Take U9C U45A U119C A141G: the self-cleavage worked out at 1.87.

With U9C U39A U96C, the self-cleavage was determined as 0.4.

For the variant U12A U13C U85C, the self-cleavage is 0.16.

Consider U9C U47A U102C, for which the self-cleavage stood at 1.48.

With U12C A57G C146U, the self-cleavage turned out to be 0.85.

Turning to U9C C113A U134C, the self-cleavage worked out at 1.97.

In the case of U12A U13C U20G, the self-cleavage stood at 0.61.

As for U9C U12G A136U, the self-cleavage was 1.28.

Turning to G11U G72A A78G, the self-cleavage stood at 1.27.

For the variant U12C A78G A94G C98U U112C, the self-cleavage stood at 0.09.

In the case of U12C A69G A129U, the self-cleavage turned out to be 0.68.

For the variant U9C U15A U96C, the self-cleavage was 0.49.

As for U9C U47A A57G U119C U134C A138G, the self-cleavage is 0.66.

Consider U12C A50U U108C, for which the self-cleavage turned out to be 0.97.

U9C U39A A65G U85A U104A U115C: the self-cleavage amounted to 0.

Consider U12A U14C A107G, for which the self-cleavage turned out to be 1.21.

Consider U9G C19U G32A U102A, for which the self-cleavage came out at 0.68.

U9C G34A A64G U102C A142G: the self-cleavage was found to be 0.27.

As for U9G U73A U132C, the self-cleavage was 0.88.

Regarding U9C U52C U91G, the self-cleavage amounted to 0.

As for G10U U20C U62C, the self-cleavage was 0.16.

With U12C A31G G60A A69G U96C, the self-cleavage worked out at 0.

In the case of G10A A79G A94G, the self-cleavage is 0.28.

For the variant U12C A50G G93C U112C A129G, the self-cleavage amounted to 0.

For the variant U12C A57U C146A, the self-cleavage was 0.17.

Regarding U9C U39C A65C A140C, the self-cleavage is 0.28.

On to G10A U20G U134A, for which the self-cleavage came to 0.98.

Turning to U9G G10A U13C, the self-cleavage was found to be 1.35.

Turning to U9C U12C U102C A136G, the self-cleavage was 1.02.

With G11A U13A U14C, the self-cleavage came to 0.89.

U9G A50G G86A: the self-cleavage is 0.43.

On to G10A U20C U46C U108C, for which the self-cleavage came out at 1.04.

In the case of U9C U85C C95U, the self-cleavage was 0.22.

As to U12C A43G U96A, the self-cleavage is 0.06.

As for U9C U12C C19U U108C U130C, the self-cleavage was 1.67.

Regarding U12A U87C U109A, the self-cleavage is 0.34.

Consider G10A U13C U62C U85C A141G, for which the self-cleavage is 0.

Take U9C U23A A92G: the self-cleavage came out at 0.

Turning to U12A G88U A92G, the self-cleavage stood at 0.

With U9C G53U A67G A141U A142G, the self-cleavage came to 0.39.

For the variant G10A A30U A138U, the self-cleavage was 1.74.

On to G11A U52A A67G, for which the self-cleavage stood at 0.36.

Turning to U9C U13A G36C A78G U119C C131G, the self-cleavage came out at 0.15.

For U12A G40A U46C A124G A136U, the self-cleavage stood at 0.6.

Turning to U12C A79G A136U, the self-cleavage came to 1.29.

In the case of U12A U96A U119C A121U A138G C146U, the self-cleavage worked out at 0.05.

For U12A U26A A42G U46C U134C, the self-cleavage stood at 0.87.

The values above are taken from the RNAGym collection of RNA variant scans (doi:10.7554/elife.90254).
